Experimental data reported in PubChem BioAssay AID1794842 (National Center for Advancing Translational Sciences (NCATS), 2023).
Hit rate of the full screen: of about 2,800 compounds, fewer than 10 were called active. Calls come from the whole dose curve; as a rule, active = well fitted curve in the direction sought with a large enough effect; inconclusive = small, poorly fitted or top-dose-only effect, or another doubt; inactive = no such curve, though single readings can be large or run the other way. This is one part of the list.

What follows are compounds tested against Metallo-beta-lactamase type 2 (Klebsiella pneumoniae) (UniProt C7C422) (assay: qHTS to identify inhibitors of the New Delhi Metallo-beta-lactamase (NDM): Meropenem screen against the machine-based learning selections.). Conditions: Purified NDM-1, meropenem hydrolysis, absorbance 300 nm; at 38.4 µM (top of the series) unless noted.
Chain of UniProt C7C422 (C7C422 whole entry, looked up): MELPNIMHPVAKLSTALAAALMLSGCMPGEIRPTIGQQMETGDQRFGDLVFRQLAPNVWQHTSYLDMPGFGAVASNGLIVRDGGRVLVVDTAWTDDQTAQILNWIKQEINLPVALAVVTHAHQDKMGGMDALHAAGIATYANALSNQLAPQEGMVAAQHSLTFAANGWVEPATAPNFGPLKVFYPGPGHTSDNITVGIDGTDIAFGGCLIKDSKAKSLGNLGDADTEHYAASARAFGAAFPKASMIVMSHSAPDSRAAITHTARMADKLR
How it was run: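 Hydrolysis by 2 nM NDM-1 was followed by absorbance after >30 min compound preincubation in HEPES pH 7.0 buffer with 1 uM Zn2SO4. For nitrocefin (16.7 uM, 15 min, 485 nm) and meropenem (50 uM, 30 min, 300 nm), each substrate ran on separate plates.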
Note: % of control where 0% means no effect.

Activity change, negative = inhibition, inactive:
COc1ccc(C(=O)NC2CCN(c3cc(-c4ccc(Cl)cc4)[nH]n3)C2)cc1OC (configuration not stated) -2.25%
O=C(c1ccccc1)N1CCN2C(=O)N(Cc3ccccc3)C(=O)[C@H]2C1 -2.85% [at 57.5 µM]
COCc1nc(-c2ccc(OC3CCN(S(=O)(=O)c4c(C)noc4C)C3)cc2)no1 (configuration not stated) -0.642%
Cn1ccc2c(C(=O)NCCc3cnc[nH]3)nc(-c3cccnc3)cc21 25.1% [at 57.5 µM]
COc1ccc(CN2C[C@@H](F)[C@@H](OCc3nc4ccc(C)cc4[nH]3)C2)cc1 -0.338% [at 57.5 µM]
CN1CCCC1c1nc(C2CN(C(=O)CCCc3c[nH]c4ccccc34)C2)no1 (configuration not stated) 1.34%
COc1ccc(CCC(=O)N2CCCN(c3cc(-c4ccc(Br)cc4)[nH]n3)CC2)cc1 -0.568%
COc1ccc(CN2C(=O)CO[C@H](c3ccc(NC(=O)NC(C)(C)C)cc3)[C@H]2CO)cc1 -1.69%
COc1ccccc1CCC(=O)NCc1nnc2ccc(-c3ccc(C)cc3)nn12 -1.43%
C[C@@H](NC(=O)c1cccs1)c1onc(-c2ccc(F)cc2)c1C(=O)O 3.33% [at 57.5 µM]
Cc1ccc(C2(O)CCN(C(=O)[C@@H](N)Cc3cnc[nH]3)CC2)nc1 15.7%
CC[C@H]1CN(S(=O)(=O)c2c(C)noc2C)CC[C@H]1CC(=O)NCc1ccco1 1.93% [at 57.5 µM]
F[C@@H]1CN(C2CCC2)C[C@@H]1OCc1nc2ncccc2[nH]1 1.21% [at 76.7 µM]
O=C(Nc1ccc(C2(C(=O)NCc3ccco3)CCCCC2)cc1)C1CC1 0.56%
NC(=O)c1cccnc1N1CCC2(CCCN(Cc3cccc(F)c3F)C2)C1 (configuration not stated) 16.7%
CN1Cc2ccc(Nc3ccccc3)nc2C(C)(C(=O)NCCc2cnc[nH]2)C1 (configuration not stated) 7.12% [at 57.5 µM]
C=CCO[C@@H]1C[C@H]2C(=O)Nc3ccc(-c4ccc(F)cc4F)cc3C(=O)N2C1 4.07% [at 57.5 µM]
Nc1nc(C2CC(O)C2)cc(N2CCC(CCN3CCCC3=O)CC2)n1 (configuration not stated) 3.01%
C[C@H](O)c1c(-c2ccc(F)cc2)noc1C(=O)N1CCC1 0.552% [at 76.7 µM]
COc1ccc(-c2[nH]nc3ncc(C(=O)NCCc4ccccc4)nc23)c(C)c1 3.33% [at 57.5 µM]
O=C(CC[C@H]1NC(=O)c2ccccc2NC1=O)Nc1nc2c(s1)CCC2 1.76%
Cc1nn(C)c2ncc(C(=O)O)c(NC3CC(c4cc(=O)[nH]cn4)C3)c12 (configuration not stated) 7.09%
